The full ranking holds about 4,100 sequences; the median of “arbitrary fluorescence units” is about 780, and the highest 2% start at about 22,000. Some of the results follow.

This assay has as its target T1, ETS1 (UniProt P14921).
T1 sequence: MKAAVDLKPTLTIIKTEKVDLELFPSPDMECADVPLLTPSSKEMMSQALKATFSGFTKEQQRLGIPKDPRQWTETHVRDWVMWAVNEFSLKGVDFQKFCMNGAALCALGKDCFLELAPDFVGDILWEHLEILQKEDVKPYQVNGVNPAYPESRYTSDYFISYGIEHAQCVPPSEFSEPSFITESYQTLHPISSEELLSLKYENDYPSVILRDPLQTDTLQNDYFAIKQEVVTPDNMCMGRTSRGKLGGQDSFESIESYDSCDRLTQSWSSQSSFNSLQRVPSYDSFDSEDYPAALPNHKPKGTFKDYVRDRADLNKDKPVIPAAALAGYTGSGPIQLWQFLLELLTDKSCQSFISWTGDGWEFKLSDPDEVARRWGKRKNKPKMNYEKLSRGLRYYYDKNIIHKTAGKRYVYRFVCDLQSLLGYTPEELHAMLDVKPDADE
The assay can be described thus: ETS1 binding intensity (PBM fluorescence), ETS1 alone (arbitrary fluorescence units); higher = stronger binding. The settings on record: ETS1 concentration 1 nM; RUNX1 concentration 0 nM. A digest of the protocol: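 Double-stranded Agilent 4 × 180k arrays held 36-bp genomic probes whose RUNX1 partner site was mutated, and these were incubated with 1 nM full-length recombinant human ETS1 in the absence of RUNX1 under standard PBM protocols. Bound protein was labelled with anti-ETS1 antibody (Cell Signaling Technology 14069) plus an Alexa488-conjugated secondary and read on a GenePix 4400A, with four spots printed per sequence. Binding level is reported as raw spot fluorescence intensity summarised over replicate spots.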
With ACACAAACAGGAAGTGTTTGTAGTCCCTGCCTTTAG, the ETS1 binding intensity was 8530. With GACCCATAGCGGAAAATTCTACAGCACTACCTCCCT the figure was 462; with AGACAGTCACTCAGCACAAACAGGAAATAGAACAAG, 5480.

For the sequence AGGCTTCCGGCCACGCCCCCTTCCCGAGGTTGCTAG, the ETS1 binding intensity was 20600. To TGCCCGAGGGCCGCCGCCTCCGTATTTCCGCGTTTT belongs 429; to TCCCGCTTCGGCCAACAGCCGGGCCACTTCCGGGGC, 2910; to CTCCATTATTCCGGCCAGGTGCCCTTCTGGGATAAG, 670.

TGGATGGCGGCGGATACTGCCCATGCCGCGAGGCCG showed an ETS1 binding intensity of 458.

For the sequence GCGAATCTACGGCATCCAACATGGCGGATGGAGTCT, the ETS1 binding intensity was found to be 331.

In turn, ACCACCCACTTCCCGCGCAGTTCCAAACGGCGACCA returned an ETS1 binding intensity of 3010. With GAGGCAGTGCGTTTACTGTGTATTTCCTTCTCTGGT the figure was 512; with ACTTAGACGCCGAAACCCCAGTTCCGCGCTTGCTGC, 422; with GACGCAGCCCCAGAGCGATTCGCGTCCCGGAAGCGG, 491. To AGTCTGGCTCTGACAACAAGGCAGGAAATAGCTCAT belongs 1760; to GGTTCCTTGACGTTCGCGGCGTGCCGGACGTGACAA, 475; to ACCTCCGTCCGGCCCGCGGGACCAGGGTGCAGGTCC, 1570.

For ACACAGTGTTTGGGGTGAATGGCTTCCGGCCCCATA, the ETS1 binding intensity is 2140. For AAACTACATTTCCCAGCATCCCGCGCGCCGCCGACC, the ETS1 binding intensity is 448. CGGGTTGAGAACCCCAGCCTTCACATCCGGCTTTTT showed an ETS1 binding intensity of 2890. To TGGCGCCGGAAAACTGGCGATGCAGGTGGGCGCGAA belongs 422; to TCCCCCTAGATAAGGAAGCAGACCAGAGAGTCTCAG, 393; to CAAGCCACCTAATTAGGATAATGGAGAGGAAGCCCA, 352. GAGACAGGAAATGTAGACTTGAGTCCTGTGATAAAC yielded an ETS1 binding intensity of 6070. To TGGATATACCTGCAGGTCCAGAATCGTTTCCGGACC belongs 717; to AGCCTCTTCCTGCTCCTGATCAGCGCTTATCTTGCT, 5120; to TGCCGCTGTTCACATGCTGGTCACACCACTTCCTGA, 674. AGTTTCCTGAACTCAGAGCACAGTTCTGGTGCAGAA came in with an ETS1 binding intensity of 6300. GGAATCCACCTCTGTCCAACCCGGCTTCCTCTCCCG: the ETS1 binding intensity turned out to be 513. AGGAGCCCTCAGCCCTGGGAGTGTTTCCTGTTTGCC registered an ETS1 binding intensity of 1360. Sequence GGCAAACAGGAAACACTCCCAGGGCTGAGGGCTCCT yielded an ETS1 binding intensity of 6050.

The sequence GTCTCTTGGTAGTTGATAAGCTAAACGGAAGTGAGT came in with an ETS1 binding intensity of 1170.

As to CACTTCCTATCGCTACATAACAAATTATCACAGACT, the ETS1 binding intensity came out at 10500.

AGGCTTCTCCCGGACGTCTCTTTGGGGTGGCGTTGA: the ETS1 binding intensity worked out at 473.

On to CCTGACTTCCTCCTCCCCCTCCCGCCCCAATTCCGC, for which the ETS1 binding intensity came to 4620. With GGGCTCCAGTTCCGCTGTCTGAGGGTCTCGCGCGCC the figure was 1890; with GGATGGCGGAAGAGGCGGCTGAGGCCGTAGGACGTG, 931; with GTAGGAACAGCGATGTACAGACAGGAAACCCAGGTC, 807. Regarding GACCTGAGGTGGAGGGCGCGACCTTGGCTTCCTGGC, the ETS1 binding intensity came out at 379. To TTTTCCCACTTCCTAGGTTGTCGTGGGGATTACACA belongs 2130. To CCTCCTTCCTCCCTGAGGGGGAGGTGCTTTTTGAGT belongs 1560. In turn, AACCTGAGGGTGGGAGGTGAAGCGGAACGGTCCCGG came in with an ETS1 binding intensity of 421. TAATGCTGTTGCTCACTTAACAGACTACAGGATGGT yielded an ETS1 binding intensity of 374.

As for CCTCTCTGTCGTTCTGCCTGGAAGACGGAAGGCAGG, the ETS1 binding intensity was 501. With TGGAAGCGGCTTCCGGGGTGAATGCTGTTGGATCGT, the ETS1 binding intensity is 9350.

TCGCCTGCGTTCCGCTGGTTGAGGGCTTTCAGCGGC gave an ETS1 binding intensity of 286. The sequence GCTCTCTGGGCTTGGAGGATGCAGGCGCCTTCCTGG came in with an ETS1 binding intensity of 338. Consider ACAATAGGAAGCTTCTCTGTGATTTTGAGCCCCAAA, for which the ETS1 binding intensity stood at 498. With GCCGCCTCTTCCTGTGTTGCAAATCACAGGTCCACC the figure was 9760; with CCCCAGGTTGCTTCCGTTCTGGGAATCGCGTCCTCG, 6890; with CTGAGGGTAACTGAAATCACAGCAAGCGGAACTGTA, 413.

GGAGGCTCTGGTGAGGAAAGAGGAAGTGACACTCCT showed an ETS1 binding intensity of 1200. The sequence TAGTCCAGATACCGAGGGGCACGTCGGAAGCTGATA gave an ETS1 binding intensity of 370. With AACATCCTGTGTAAAGAGAATTGAATGTAGTTTTCT the figure was 25200; with GAGCAACCAGGAAGAGCTTTGGCTGAGGGCTAAGAT, 552. CCGCTGAGCCTTCCGCCCAGGCCACCTGCACTCAGC yielded an ETS1 binding intensity of 1340. In turn, CAAGCTGGCAGGAAGCGCGGTGCAACCCCAAGAGTC yielded an ETS1 binding intensity of 2370. Sequence CTGTCATCTTCCTGACAGCACGCTCACAAAGGACCA came in with an ETS1 binding intensity of 648. CGTAGACACCTTCCGCTGCACCCAGCCCCAGCTGGT gave an ETS1 binding intensity of 2460. With CTGGCCGTGGCGTCCGGGAGCTGAGGGGCCGTCCCC the figure was 484. The sequence AGGCCGTGCAGGAAATGAGACCTACAGCCACGTCAC yielded an ETS1 binding intensity of 3810. On to GCGCAGAGGACAGCGGCGACCGGAAAAGCAAGGCAG, for which the ETS1 binding intensity was 1920.

The sequence GACCTGGGTTTCCTGTCTGTACATCGCTGTTCCTAC registered an ETS1 binding intensity of 10100. In turn, TGACTTCCGGTCCGTAGTGGGGCCTTCGGTGGGAGT came in with an ETS1 binding intensity of 35800.
